Test results from publication PMC4336329 (PLoS ONE, 2015).
Screen size: about 310,000 compounds; about 14,000 (4.5%) showed an effect of 50% or more. Effects have a minus sign here. Some of the results follow.

target: human ether-à-go-go-related gene (hERG) potassium channel (human, UniProt Q12809); test: primary screen, population patch clamp on CHO cells stably expressing hERG
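Also: peak tail current of the secondary pulse compared with the same well before compound.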

Sequence of human ether-à-go-go-related gene (hERG) potassium channel (Q12809 whole entry, looked up): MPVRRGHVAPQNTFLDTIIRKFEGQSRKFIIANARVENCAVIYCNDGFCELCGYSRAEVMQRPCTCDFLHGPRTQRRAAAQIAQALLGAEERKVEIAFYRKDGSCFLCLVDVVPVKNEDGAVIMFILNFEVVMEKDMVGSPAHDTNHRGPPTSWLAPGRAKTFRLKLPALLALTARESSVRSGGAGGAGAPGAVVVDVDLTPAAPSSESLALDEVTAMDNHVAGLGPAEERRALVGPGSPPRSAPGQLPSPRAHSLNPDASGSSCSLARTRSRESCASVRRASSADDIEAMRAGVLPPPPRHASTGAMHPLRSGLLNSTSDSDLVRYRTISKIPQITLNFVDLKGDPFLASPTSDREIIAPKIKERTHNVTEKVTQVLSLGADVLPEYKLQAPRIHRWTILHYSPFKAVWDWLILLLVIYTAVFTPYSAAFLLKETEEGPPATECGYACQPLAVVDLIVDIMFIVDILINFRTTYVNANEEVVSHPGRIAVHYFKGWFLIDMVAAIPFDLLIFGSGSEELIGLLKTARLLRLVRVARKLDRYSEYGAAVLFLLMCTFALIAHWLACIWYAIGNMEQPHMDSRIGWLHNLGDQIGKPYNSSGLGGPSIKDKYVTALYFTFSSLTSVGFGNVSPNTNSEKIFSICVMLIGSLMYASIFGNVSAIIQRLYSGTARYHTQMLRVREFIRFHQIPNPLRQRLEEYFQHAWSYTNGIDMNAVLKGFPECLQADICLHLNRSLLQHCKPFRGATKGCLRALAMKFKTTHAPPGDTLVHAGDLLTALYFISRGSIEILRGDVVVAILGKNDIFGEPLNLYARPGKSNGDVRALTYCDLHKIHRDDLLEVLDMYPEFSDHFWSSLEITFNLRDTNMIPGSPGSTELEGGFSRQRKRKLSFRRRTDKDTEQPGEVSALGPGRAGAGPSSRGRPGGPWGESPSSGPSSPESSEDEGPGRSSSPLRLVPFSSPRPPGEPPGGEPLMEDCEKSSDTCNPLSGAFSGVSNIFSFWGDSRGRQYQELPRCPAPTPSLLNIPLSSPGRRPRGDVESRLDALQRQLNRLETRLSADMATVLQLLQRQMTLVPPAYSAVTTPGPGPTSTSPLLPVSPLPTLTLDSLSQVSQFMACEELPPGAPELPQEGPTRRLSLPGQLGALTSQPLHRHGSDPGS

Compound | hERG current change (%, negative = inhibition) at 10uM [%]
COc1ccccc1NS(=O)(=O)c1cc(-c2cnc(C3CC3)o2)ccc1C | 3.37
CC(C)(C)OC(=O)N1CCC(c2c(C(=O)NCC3CCN(C4CCCC4)C3)cnn2-c2ccc(F)cc2)CC1 (centres unmarked) | -50.5
COc1cc(C(=O)Nc2cc(Cl)ccc2C)c(-n2cnnn2)cc1OC | 7.69
OCCN(Cc1ccccc1)Cc1cccc(Cl)c1Cl | -1.57
CCCc1c(C)nc(-c2ccc(C)cc2)nc1OC(=O)N(C)C | -6.78
Cc1ccc(NC2CCCN(C(=O)CSc3ccncc3)C2)cc1C (centres unmarked) | -20.4
O=C(CN1CCN(c2ccc(O)cc2)CC1)NC(=O)NCc1ccco1 | -8.38
CCOC(=O)Nc1cc(=O)c2ccccc2o1 | -7.15
O=C(NC1CCc2ccccc21)C1CCN(S(=O)(=O)c2ccc(-n3cnnn3)cc2)CC1 (centres unmarked) | -29.4
CCOc1cccc(C(=O)Nc2ccccc2C(=O)N2CCOCC2)c1 | 10.2
CC(C)CNC(=O)c1cccc(NC(=O)COc2cccc([N+](=O)[O-])c2)c1 | -24.7
O=C1[C@H]2[C@@H](C(=O)N1c1cc(Cl)cc(Cl)c1)[C@]1(C(=O)Nc3ccccc31)N1CCC[C@@H]21 | -2.71
Cc1ccc(-n2cc3ccc([N+](=O)[O-])cc3n2)cc1 | 5.28
Cc1ccccc1C(C(=O)NC1CCCC1)N(C(=O)CNC(=O)c1ccco1)c1cccnc1 (centres unmarked) | -5.1
O=S(=O)(NCC1OCCc2ccccc21)c1ccc(S(=O)(=O)N2CCOCC2)cc1 (centres unmarked) | -28.3
Cc1cc(C)c(S(=O)(=O)N2CCC(C(=O)NCc3ccc(Cl)cc3Cl)CC2)c(C)c1 | -8.93
O=C(Nc1nc2cc3c(cc2s1)OCCO3)c1ccco1 | 12.7
COc1ccc(NC(=S)N2CCC(C(=O)c3ccc(F)cc3)CC2)c(OC)c1 | -16.7
CCOC(=O)c1sc(=S)n(-c2ccccc2)c1NC(C)=O | 5.42

Compound | hERG current change (%, negative = inhibition) at 10uM [%]
O=C(Cn1[nH]c(=O)c2ccccc2c1=O)Nc1cccc(-c2nnc3n2CCCCC3)c1 | -10.4
COc1cc(OC)c(NC(=O)c2ccccc2F)cc1Cl | -20.6
COc1cccc(OCc2cc(C(=O)N3CCN(c4ccccc4O)CC3)no2)c1 | 4.71
O=C(CCNC(=O)C1CCN(S(=O)(=O)c2ccccc2)CC1)NCc1ccc(Cl)c(Cl)c1 | -30.7
CC(C)CC(=O)Nc1nnc(S(=O)(=O)N2CCCCCC2)s1 | -15
C=CCNC(=S)NNC(=O)c1ccco1 | 2.45
CCN(CC(=O)Nc1c(F)cccc1F)C(=O)C1CCC1 | -13.8
CC(C)(C)n1nc2c(c1NC(=O)CCCc1ccccc1)CS(=O)C2 (centres unmarked) | 5.69
COc1ccc(C)cc1NC(=S)N1CCN(c2ncccn2)CC1 | -8.99
O=C(c1cccc2nccnc12)N1CCCC(Nc2ccc(F)c(F)c2)C1 (centres unmarked) | -1.4
CCCCC(CCC(=O)Nc1nccs1)C(=O)O (centres unmarked) | 8.82
CC(C)C[C@H](NC(=O)N1CCn2c1nc1ccccc12)C(=O)NCc1ccco1 | 10
O=C(NCC1CCCN(C(=O)c2cc(Cl)ccc2F)C1)c1ccc(F)cc1 (centres unmarked) | -6.65
COc1ccc(OC)c(C2C(C(=O)c3ccco3)=C(O)C(=O)N2CC2CCCO2)c1 (centres unmarked) | 13.1
CCCc1nc(NCCCOCC)c2nnn(Cc3ccccc3)c2n1 | -3.78
Cc1c(C(=O)N2CCN(C(=O)c3ccco3)CC2)sc2nc(-c3ccc(F)cc3)cn12 | -76.9
O=C(NCC(=O)N1CCCC1)c1ccc(Cl)cc1 | 7.38
Cc1ccc(C)c(OCC(=O)NC2CCCCCC2)c1 | 13
Cc1cc(N2CCN(C(=O)Nc3ccc(F)cc3F)CC2)c2ccccc2n1 | -72.2

Compound | hERG current change (%, negative = inhibition) at 10uM [%]
CCC(C)NC(=O)CNC(=O)c1nn(-c2ccc(OC)cc2)c(=O)c2ccccc12 (centres unmarked) | 16.8
COc1ccc(C2C3=C(CC(c4ccco4)CC3=O)Nc3ccccc3N2C(C)=O)cc1 (centres unmarked) | -7.88
c1ccc(CCc2nc(-c3ccncc3)no2)cc1 | 4.06
O=C(OCC(=O)N1CCCc2ccccc21)c1cccnc1Cl | -3.36
COc1ccc(C(=O)NCc2cccnc2)cc1S(=O)(=O)N1CCOCC1 | 14.5
O=C(/C=C/c1ccco1)NC1=NCCS1 | 13.7
Cc1ccnc(NC(=O)C(C)N2C(=O)c3ccccc3C2=O)c1 (centres unmarked) | 8.86
COc1ccc(C(=O)Nn2c(CC(C)C)nc3cc(Cl)ccc3c2=O)c(OC)c1 | 13.4
CC(=O)Nc1nc(-c2cccc3ccccc23)cs1 | -9.32
C#CCn1c(=NC(=O)c2ccc(Br)s2)sc2cccc(OC)c21 | 18.9
COc1cc2c(cc1OC)CN(S(=O)(=O)c1ccc3c(c1)OCCO3)CC2 | -13.4
COc1ccc(-n2c(CNC(=O)c3ccc(S(=O)(=O)N4CCCC4)cc3)n[nH]c2=S)cc1 | 12.2
CCN1C(=O)/C(=C/N(C(C)=O)c2ccccc2)N(c2ccccc2)C1=S | -22.3
Cc1ccc(/C=C2\C(=O)Nc3ccccc32)o1 | 5.04
Br.CCOc1ccc(S(=O)(=O)NN2Cc3ccccc3C2=N)cc1 | 5.2
O=C(C1=COCCO1)N1CCN(C(c2ccccc2)c2ccccc2)CC1 | -7.48
CN(N=Nc1cccc([N+](=O)[O-])c1)c1cccc([N+](=O)[O-])c1 | 8.56
COc1cc(/C=N/Nc2ccc(Cl)c(C(=O)O)c2)ccc1OC(=O)c1cccs1 | 1.7
